Consider 31 molecules from paper PMC9911399, “Two distinct binding modes provide the RNA-binding protein RbFox with extraordinary sequence specificity”.

To fix the notation:
T1: RBFOX1 RRM RbFoxmut (Fox-RRM*) (Homo sapiens, UniProt Q9NWB1 109-208, R118D;E147R;N151S;E152T)
T1 sequence: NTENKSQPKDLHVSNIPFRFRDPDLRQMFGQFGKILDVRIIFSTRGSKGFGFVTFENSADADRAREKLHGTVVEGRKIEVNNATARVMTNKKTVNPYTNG

B1: UAAUGCU (DNA:RNA)
RNA: GGGAGACCGGAAUUCAGAUUGUCCUAAUGCUUUAAAUCCCGUCGUAGCCACCA
DNA 1: CAATCTGAATTCCGGTCTCCC
DNA 2: TGGTGGCTACGACGGGATT
B2: UUAGGCU (DNA:RNA)
RNA: B1 RNA with A26U, U28G
DNA 1: CAATCTGAATTCCGGTCTCCC
DNA 2: TGGTGGCTACGACGGGATT
B3: AAAAGCA (DNA:RNA)
RNA: B1 RNA with U25A, U28A, U31A
DNA 1: CAATCTGAATTCCGGTCTCCC
DNA 2: TGGTGGCTACGACGGGATT
B4: GACGUGC (DNA:RNA)
RNA: B1 RNA with U25G, A27C, U28G, G29U, C30G, U31C
DNA 1: CAATCTGAATTCCGGTCTCCC
DNA 2: TGGTGGCTACGACGGGATT
B5: AUUUCAA (DNA:RNA)
RNA: B1 RNA with U25A, A26U, A27U, G29C, C30A, U31A
DNA 1: CAATCTGAATTCCGGTCTCCC
DNA 2: TGGTGGCTACGACGGGATT
B6: GCGCGGG (DNA:RNA)
RNA: B1 RNA with U25G, A26C, A27G, U28C, C30G, U31G
DNA 1: CAATCTGAATTCCGGTCTCCC
DNA 2: TGGTGGCTACGACGGGATT
B7: GACGUUG (DNA:RNA)
RNA: B1 RNA with U25G, A27C, U28G, G29U, C30U, U31G
DNA 1: CAATCTGAATTCCGGTCTCCC
DNA 2: TGGTGGCTACGACGGGATT
B8: CCCAGCG (DNA:RNA)
RNA: B1 RNA with U25C, A26C, A27C, U28A, U31G
DNA 1: CAATCTGAATTCCGGTCTCCC
DNA 2: TGGTGGCTACGACGGGATT
B9: CUUAACA (DNA:RNA)
RNA: B1 RNA with U25C, A26U, A27U, U28A, G29A, U31A
DNA 1: CAATCTGAATTCCGGTCTCCC
DNA 2: TGGTGGCTACGACGGGATT
B10: UUCAUAU (DNA:RNA)
RNA: B1 RNA with A26U, A27C, U28A, G29U, C30A
DNA 1: CAATCTGAATTCCGGTCTCCC
DNA 2: TGGTGGCTACGACGGGATT
B11: AGCGCGC (DNA:RNA)
RNA: GGGAGACCGGAAUUCAGAUUGUCCAGCGCGCUUAAAUCCCGUCGUAGCCACCA
DNA 1: CAATCTGAATTCCGGTCTCCC
DNA 2: TGGTGGCTACGACGGGATT
B12: CACUAAG (DNA:RNA)
RNA: B1 RNA with U25C, A27C, G29A, C30A, U31G
DNA 1: CAATCTGAATTCCGGTCTCCC
DNA 2: TGGTGGCTACGACGGGATT
B13: CGAUUGU (DNA:RNA)
RNA: B1 RNA with U25C, A26G, G29U, C30G
DNA 1: CAATCTGAATTCCGGTCTCCC
DNA 2: TGGTGGCTACGACGGGATT
B14: CGGAUGU (DNA:RNA)
RNA: B11 RNA with A25C, C27G, G28A, C29U, C31U
DNA 1: CAATCTGAATTCCGGTCTCCC
DNA 2: TGGTGGCTACGACGGGATT
B15: UGGCAAA (DNA:RNA)
RNA: B11 RNA with A25U, C27G, G28C, C29A, G30A, C31A
DNA 1: CAATCTGAATTCCGGTCTCCC
DNA 2: TGGTGGCTACGACGGGATT
B16: GUCGAGA (DNA:RNA)
RNA: B11 RNA with A25G, G26U, C29A, C31A
DNA 1: CAATCTGAATTCCGGTCTCCC
DNA 2: TGGTGGCTACGACGGGATT
B17: GCCCCAG (DNA:RNA)
RNA: B11 RNA with A25G, G26C, G28C, G30A, C31G
DNA 1: CAATCTGAATTCCGGTCTCCC
DNA 2: TGGTGGCTACGACGGGATT
B18: AGCGCUG (DNA:RNA)
RNA: B11 RNA with G30U, C31G
DNA 1: CAATCTGAATTCCGGTCTCCC
DNA 2: TGGTGGCTACGACGGGATT
B19: CGACGGA (DNA:RNA)
RNA: B11 RNA with A25C, C27A, G28C, C29G, C31A
DNA 1: CAATCTGAATTCCGGTCTCCC
DNA 2: TGGTGGCTACGACGGGATT
B20: GCGUAAA (DNA:RNA)
RNA: B1 RNA with U25G, A26C, A27G, G29A, C30A, U31A
DNA 1: CAATCTGAATTCCGGTCTCCC
DNA 2: TGGTGGCTACGACGGGATT
B21: GCAGAUC (DNA:RNA)
RNA: B11 RNA with A25G, G26C, C27A, C29A, G30U
DNA 1: CAATCTGAATTCCGGTCTCCC
DNA 2: TGGTGGCTACGACGGGATT
B22: CUCCCAC (DNA:RNA)
RNA: B11 RNA with A25C, G26U, G28C, G30A
DNA 1: CAATCTGAATTCCGGTCTCCC
DNA 2: TGGTGGCTACGACGGGATT
B23: CUUACAU (DNA:RNA)
RNA: B11 RNA with A25C, G26U, C27U, G28A, G30A, C31U
DNA 1: CAATCTGAATTCCGGTCTCCC
DNA 2: TGGTGGCTACGACGGGATT
B24: GCAGACC (DNA:RNA)
RNA: B11 RNA with A25G, G26C, C27A, C29A, G30C
DNA 1: CAATCTGAATTCCGGTCTCCC
DNA 2: TGGTGGCTACGACGGGATT
B25: GGUACUA (DNA:RNA)
RNA: B11 RNA with A25G, C27U, G28A, G30U, C31A
DNA 1: CAATCTGAATTCCGGTCTCCC
DNA 2: TGGTGGCTACGACGGGATT
B26: CCGCGAC (DNA:RNA)
RNA: B11 RNA with A25C, G26C, C27G, G28C, C29G, G30A
DNA 1: CAATCTGAATTCCGGTCTCCC
DNA 2: TGGTGGCTACGACGGGATT
B27: UGCAAUG (DNA:RNA)
RNA: B11 RNA with A25U, G28A, C29A, G30U, C31G
DNA 1: CAATCTGAATTCCGGTCTCCC
DNA 2: TGGTGGCTACGACGGGATT
B28: AUCAUGC (DNA:RNA)
RNA: B11 RNA with G26U, G28A, C29U
DNA 1: CAATCTGAATTCCGGTCTCCC
DNA 2: TGGTGGCTACGACGGGATT
B29: CUUAUUC (DNA:RNA)
RNA: B11 RNA with A25C, G26U, C27U, G28A, C29U, G30U
DNA 1: CAATCTGAATTCCGGTCTCCC
DNA 2: TGGTGGCTACGACGGGATT
B30: GUACGCC (DNA:RNA)
RNA: B1 RNA with U25G, A26U, U28C, U31C
DNA 1: CAATCTGAATTCCGGTCTCCC
DNA 2: TGGTGGCTACGACGGGATT
B31: GUCAAUA (DNA:RNA)
RNA: B11 RNA with A25G, G26U, G28A, C29A, G30U, C31A
DNA 1: CAATCTGAATTCCGGTCTCCC
DNA 2: TGGTGGCTACGACGGGATT

Positions count from the first letter of the chain named. The list shows a part of the results.

For this assay, the target named is T1, RBFOX1 RRM RbFoxmut (Fox-RRM*). Briefly: EMSA; HiTS-Eq, 1 nM pool, 10 min; buffer printed only for the single-RNA assays: 10 mM Tris pH 7.5, 150 mM NaCl, 3.4 mM EDTA, 0.001% NP-40, 30 C. To be noted: tags: His6 N-terminal (pET28a); label: 5' 32P. In a few lines: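 Relative association constants, normalised to the cognate motif, were derived by comparing read counts of each RNA species with those of the control reaction. The RNA sequenced was the free fraction, separated by 8% native PAGE after a 10 min equilibration in 50 µL of 1 nM 5′-radiolabelled RNA (7 randomized nucleotides) with increasing concentrations of purified wild-type or mutant RbFox RRM.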
With B1, the binding signal is 0.0885 KA relative to UGCAUGU.

For B2, the binding signal was 0.0832 KA relative to UGCAUGU.

In the case of B3, the binding signal is 0.0974 KA relative to UGCAUGU.

On to B4, for which the binding signal was 0.118 KA relative to UGCAUGU.

For the molecule B5, the binding signal was 0.0991 KA relative to UGCAUGU.

Regarding B6, the binding signal is 0.0952 KA relative to UGCAUGU.

With B7, the binding signal is 0.117 KA relative to UGCAUGU.

Regarding B8, the binding signal is 0.102 KA relative to UGCAUGU.

As to B9, the binding signal was 0.0889 KA relative to UGCAUGU.

For B10, the binding signal was 0.115 KA relative to UGCAUGU.

As for B11, the binding signal was 0.0969 KA relative to UGCAUGU.

Consider B12, for which the binding signal was 0.146 KA relative to UGCAUGU.

In the case of B13, the binding signal is 0.206 KA relative to UGCAUGU.

Turning to B14, the binding signal was 0.281 KA relative to UGCAUGU.

Turning to B15, the binding signal is 0.075 KA relative to UGCAUGU.

For B16, the binding signal was 0.0842 KA relative to UGCAUGU.

Consider B17, for which the binding signal was 0.117 KA relative to UGCAUGU.

B18: the binding signal was 0.0951 KA relative to UGCAUGU.

B19: the binding signal is 0.071 KA relative to UGCAUGU.

For B20, the binding signal was 0.0945 KA relative to UGCAUGU.

B21: the binding signal was 0.0732 KA relative to UGCAUGU.

B22: the binding signal was 0.107 KA relative to UGCAUGU.

On to B23, for which the binding signal was 0.0902 KA relative to UGCAUGU.

B24: the binding signal was 0.0636 KA relative to UGCAUGU.

B25: the binding signal was 0.0754 KA relative to UGCAUGU.

Regarding B26, the binding signal was 0.0861 KA relative to UGCAUGU.

Take B27: the binding signal is 0.242 KA relative to UGCAUGU.

For the molecule B28, the binding signal was 0.129 KA relative to UGCAUGU.

As for B29, the binding signal is 0.0884 KA relative to UGCAUGU.

For B30, the binding signal is 0.115 KA relative to UGCAUGU.

For B31, the binding signal was 0.0736 KA relative to UGCAUGU.
